The results in this text go back to PMC6451091.

The other results are listed elsewhere or left out. For part of these data: At the low end of the ranking the order means little. For part of these data: Measured with an extract: partners may take part in the binding.

Holding throughout (settings): 20 mM HEPES pH 7.9, 100 mM NaCl, 1 mM DTT, 0.2 mg/mL BSA, 0.02% Triton X-100, 2% milk, 0.4 mg/mL salmon testes DNA; 1 h; temperature not stated; high values mean tight binding; double strand, one strand shown; sequences stand for … in GCCTAGCAC…GTGCTAGGTCTTGATTCGCTTGACGCTGCTG
Test [1] has as its target PU.1 (IVT) (UniProt P17947). The test is described as follows: protein-binding microarray (PBM).
The target in test [2] is PU.1 (endogenous, THP-1 nuclear extract) (UniProt P17947). The experiment in a line: nuclear extract protein-binding microarray (nextPBM).
Test [3] has as its target T1, FLI1 (endogenous, THP-1 nuclear extract) (UniProt Q01543).
T1 sequence: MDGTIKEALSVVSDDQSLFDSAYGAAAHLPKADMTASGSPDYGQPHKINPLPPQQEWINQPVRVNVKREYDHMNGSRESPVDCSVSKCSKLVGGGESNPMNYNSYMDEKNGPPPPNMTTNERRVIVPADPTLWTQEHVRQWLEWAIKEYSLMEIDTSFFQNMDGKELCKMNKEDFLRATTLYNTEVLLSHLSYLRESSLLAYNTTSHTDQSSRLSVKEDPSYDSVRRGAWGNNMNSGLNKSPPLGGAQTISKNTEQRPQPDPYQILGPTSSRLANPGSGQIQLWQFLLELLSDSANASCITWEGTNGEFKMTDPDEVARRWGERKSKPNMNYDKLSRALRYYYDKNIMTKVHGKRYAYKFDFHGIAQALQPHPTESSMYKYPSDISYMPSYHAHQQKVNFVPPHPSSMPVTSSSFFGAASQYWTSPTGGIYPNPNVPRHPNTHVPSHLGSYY
Described as above.

For TGAAAAGGGAAGTGAGGAAG, the binding signal in test [1] came to 5.34 z-score; in test [2], 6.23 z-score; in test [3], 2.69 z-score.
GAATTGAGGAACTGAATGCT: the figures for the binding signal in test [1], in test [2] and in test [3] were 5.26 z-score, 5.65 z-score and 1.69 z-score, respectively.
As to TCAAAAAGGAACTGTGCCCC, the results for the binding signal in test [1], in test [2] and in test [3] were 1.77 z-score, 1.35 z-score and 0.413 z-score, respectively.
In the case of CGAAAGGGGAAGTGCGAAAC, the values for the binding signal in test [1], in test [2] and in test [3] were 6.97 z-score, 7 z-score and 3.15 z-score, respectively.
TTAAGGAGGAAGTTTTGCAA: the binding signal in test [1] is 4.58 z-score; in test [2], 3.34 z-score; in test [3], 2.24 z-score.
In the case of AGGAAGGGGAAGTGGAGATT, the binding signal in test [1] was 5.33 z-score; in test [2], 5.95 z-score; in test [3] it was 3 z-score.
Consider TGAAAGTGGAAGTGAATGTT, for which the binding signal in test [1] was found to be 3.68 z-score; in test [2], 2.84 z-score; in test [3], 1.66 z-score.
The matching figures for AAAAAGGGGAAGTGATGGCG: 8.22 z-score, 7.35 z-score and 3.52 z-score.
The matching figures for TCAGAGAGGAAGTGTCACAC: 3.83 z-score, 4.02 z-score and 2.47 z-score.
The matching figures for AAGAAGAGGAAGTGATATTG: 7.56 z-score, 6.8 z-score and 3.72 z-score.
On to TGAAAGAGGAACTGCAACCA, for which the results for the binding signal in test [1], in test [2] and in test [3] were 5.7 z-score, 6.29 z-score and 2.28 z-score, respectively.
As to CCAGGAGGGAAGTGCTTGGT, the binding signal stood at 2.67 z-score in test [1], 2.58 z-score in test [2] and 1.26 z-score in test [3].
Regarding GATAACAGGAAGTCCCATAG, the binding signal in test [1] turned out to be 4.86 z-score; in test [2], 5.56 z-score; in test [3], 4.08 z-score.
For CAGAGGGGGAAGTGCCAGGC, the binding signal in test [1] amounted to 3.55 z-score; in test [2], 3.86 z-score; in test [3] it was 1.55 z-score.
On the same counts, the results for ACAAAAATGAACTGTGCCCC are 0.00141 z-score, -0.385 z-score and -0.696 z-score.
On the same counts, the results for TGGATCAGGAAGTGGTTTCC are 3.32 z-score, 3.62 z-score and 3.63 z-score.
Turning to ACAAAAAGGAACTGTGACCC, the binding signal is 2.34 z-score in test [1], 1.82 z-score in test [2] and 0.514 z-score in test [3].
The matching figures for CCAGAGGGGAACTGAACAAG: 1.91 z-score, 1.86 z-score and 0.709 z-score.
On the same counts, the results for GAAGACAGGAAGTCCCATAG are 2.73 z-score, 2.6 z-score and 4.26 z-score.
In the case of CAGAAGGGGAAGCGGAGCTG, the binding signal in test [1] amounted to 2.6 z-score; in test [2], 2.76 z-score; in test [3], 1.56 z-score.
Take TCCTGGGGGAAGTGGTGGTG: the figures for the binding signal in test [1], in test [2] and in test [3] were 2.52 z-score, 2.83 z-score and 1.44 z-score, respectively.
TATAAGAGGAACTGAAAGGA: the values for the binding signal in test [1], in test [2] and in test [3] were 3.64 z-score, 4.29 z-score and 1.67 z-score, respectively.
With TCAAAGAGGAAGTGACTTCG, the binding signal in test [1] was determined as 6.71 z-score; in test [2] it was 6.78 z-score; in test [3], 3.7 z-score.
For the sequence ACGATGAGGAACTGGCAGTA, the binding signal was 2.98 z-score in test [1], 2.86 z-score in test [2] and 0.776 z-score in test [3].
The matching figures for CGAAAGCGGAAGTGCTAAAC: 7.81 z-score, 7.45 z-score and 5.56 z-score.
As for GATAAAAGGAAGTCCTCTGT, the binding signal in test [1] was determined as 3.29 z-score; in test [2], 3.11 z-score; in test [3], 1.92 z-score.
As to TCCATGAGGAAGTGGGCTAA, the binding signal in test [1] came to 4.48 z-score; in test [2], 5.07 z-score; in test [3] it was 2.32 z-score.
On the same counts, the results for AGATGGAGGAAGTGGAAGAG are 3.87 z-score, 3.65 z-score and 2.58 z-score.
The matching figures for CAAATGAGGAACTGACGCGG: 5.71 z-score, 6.05 z-score and 2.56 z-score.
For the sequence TAAATGGGGAAGTGTAGACT, the binding signal in test [1] turned out to be 6.34 z-score; in test [2], 6.69 z-score; in test [3] it was 2.51 z-score.
On the same counts, the results for AAGCAGGGGAAGTGAAATAA are 3.14 z-score, 3.03 z-score and 2.18 z-score.
As to TTAAAAGGGAAGTGACTCTT, the binding signal is 5.41 z-score in test [1], 6.13 z-score in test [2] and 2.56 z-score in test [3].
Turning to AAACTGAGGAAGTGATGACT, the binding signal is 3.4 z-score in test [1], 3.34 z-score in test [2] and 1.8 z-score in test [3].
Consider AGAAAGAGGAACTGAGAAAA, for which the binding signal is 6.2 z-score in test [1], 6.62 z-score in test [2] and 2.36 z-score in test [3].
On the same counts, the results for CCAAACAGGAACTACTGTGC are 3.89 z-score, 4.04 z-score and 2.17 z-score.
In the case of CATAAAAGGAAGTGTGTCCT, the binding signal in test [1] worked out at 3.21 z-score; in test [2], 3 z-score; in test [3], 2.21 z-score.
On to GAAAAGAGGAAGTGTGAGAT, for which the results for the binding signal in test [1], in test [2] and in test [3] were 8.2 z-score, 7.45 z-score and 4.53 z-score, respectively.
As for GGAAAGAGGAAGTACTGTAG, the binding signal in test [1] worked out at 7.98 z-score; in test [2] it was 7.47 z-score; in test [3], 3.81 z-score.
On the same counts, the results for AAAATCAGGAAGTCCCTTAC are 6.01 z-score, 6.54 z-score and 2.98 z-score.
As to GAAAACGGGAAGTGAAGCAG, the binding signal amounted to 7.56 z-score in test [1], 7.13 z-score in test [2] and 3.17 z-score in test [3].
Consider AAAAAAAGGAACTGGCTATA, for which the binding signal was 4.33 z-score in test [1], 4.16 z-score in test [2] and 1.69 z-score in test [3].
Turning to GGGGAGAGGAAGTACTGTGA, the values for the binding signal in test [1], in test [2] and in test [3] were 4.7 z-score, 4.41 z-score and 2.44 z-score, respectively.
AGAGTGAGGAAGTGAACTTA: the figures for the binding signal in test [1], in test [2] and in test [3] were 4.08 z-score, 3.85 z-score and 1.96 z-score, respectively.
The matching figures for GAAAGAGGGAAGTGGGTGCC: 4.85 z-score, 5.52 z-score and 1.97 z-score.
Consider GAGGAGAGGAAGTGGTTGTT, for which the binding signal came to 4.18 z-score in test [1], 4.08 z-score in test [2] and 3.16 z-score in test [3].
On the same counts, the results for GATAAGAGGAAGTCCTCTGA are 5.59 z-score, 6.41 z-score and 2.88 z-score.
On the same counts, the results for AGGAAAGGGAAGTGACTCTC are 4.92 z-score, 5.78 z-score and 2.76 z-score.
TCCAGGAGGAACTACTGTGT: the results for the binding signal in test [1], in test [2] and in test [3] were 2.59 z-score, 2.62 z-score and 1.04 z-score, respectively.
On the same counts, the results for CGCAAGGGGAAGTGCTAAAC are 4.55 z-score, 4.77 z-score and 2.15 z-score.
Regarding AAAAAAAGGAAGTGATAGCC, the binding signal in test [1] worked out at 6.5 z-score; in test [2], 6.46 z-score; in test [3], 3.06 z-score.
On the same counts, the results for AATAACAGGAAGTGGGTGCT are 6.25 z-score, 6.5 z-score and 5.08 z-score.
On the same counts, the results for GGAAAGAGGAACTGGCTTGT are 6.29 z-score, 6.58 z-score and 2.41 z-score.
On the same counts, the results for TCAAGGAGGAAGTGCCAGAA are 5.11 z-score, 5.29 z-score and 2.53 z-score.
CAAAAAGGGAAGTTGATGCT: the values for the binding signal in test [1], in test [2] and in test [3] were 7.79 z-score, 7.12 z-score and 3.05 z-score, respectively.
On the same counts, the results for GATCAGAGGAAGTCCTCTGT are 2.58 z-score, 2.59 z-score and 2.09 z-score.
On the same counts, the results for AAATAGAGGAAGTGTTCAGT are 7.1 z-score, 6.85 z-score and 3.47 z-score.
The matching figures for AGAAAGGGGAAGTGACTTGC: 8.13 z-score, 7.51 z-score and 4.03 z-score.
As for CAGTTGAGGAAGTCATGGTG, the binding signal in test [1] was determined as 3.8 z-score; in test [2], 3.73 z-score; in test [3] it was 1.89 z-score.
The matching figures for CAAAAAGGGAAGTGAGGTAC: 6.58 z-score, 6.73 z-score and 2.62 z-score.
The matching figures for CAAATTAGGAACTGATGCGG: 2.14 z-score, 2.06 z-score and 0.517 z-score.
